Data published in PMC6981167.
Results are given in words; binding and its absence hold for the method and conditions named. For part of these data: Binding seen in cells or lysates may run through a third protein. Some binding calls cover weakened binding; strength is not graded here.

Amino acid sequences for entries named in this document (tags omitted). A change or cut given only in a name is not applied to a line headed by its entry. Residues count along the entry.
UniProt Q96AC1: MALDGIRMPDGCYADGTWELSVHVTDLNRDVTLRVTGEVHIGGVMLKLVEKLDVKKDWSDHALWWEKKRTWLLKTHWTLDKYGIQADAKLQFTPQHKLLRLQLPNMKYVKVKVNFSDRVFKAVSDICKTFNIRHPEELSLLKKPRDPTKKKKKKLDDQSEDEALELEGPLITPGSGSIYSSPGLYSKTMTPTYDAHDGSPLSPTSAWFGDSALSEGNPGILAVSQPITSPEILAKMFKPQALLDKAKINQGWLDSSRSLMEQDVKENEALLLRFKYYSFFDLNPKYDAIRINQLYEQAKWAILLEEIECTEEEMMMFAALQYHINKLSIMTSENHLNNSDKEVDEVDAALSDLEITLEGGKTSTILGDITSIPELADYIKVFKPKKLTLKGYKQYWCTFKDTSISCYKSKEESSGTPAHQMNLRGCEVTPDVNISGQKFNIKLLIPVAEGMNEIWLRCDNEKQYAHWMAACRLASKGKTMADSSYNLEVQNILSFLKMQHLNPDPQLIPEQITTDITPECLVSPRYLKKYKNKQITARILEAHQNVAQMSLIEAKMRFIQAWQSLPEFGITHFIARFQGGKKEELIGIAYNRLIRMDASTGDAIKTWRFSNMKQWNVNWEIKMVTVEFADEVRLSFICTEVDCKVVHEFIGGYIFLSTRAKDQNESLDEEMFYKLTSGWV
Flag-Kindlin-2 aa 1-569: residues 1-569 of Q96AC1
Flag-Kindlin-2 aa 1-239: residues 1-239 of Q96AC1
Flag-Kindlin-2 aa 570-680: residues 570-680 of Q96AC1
UniProt Q8CF90: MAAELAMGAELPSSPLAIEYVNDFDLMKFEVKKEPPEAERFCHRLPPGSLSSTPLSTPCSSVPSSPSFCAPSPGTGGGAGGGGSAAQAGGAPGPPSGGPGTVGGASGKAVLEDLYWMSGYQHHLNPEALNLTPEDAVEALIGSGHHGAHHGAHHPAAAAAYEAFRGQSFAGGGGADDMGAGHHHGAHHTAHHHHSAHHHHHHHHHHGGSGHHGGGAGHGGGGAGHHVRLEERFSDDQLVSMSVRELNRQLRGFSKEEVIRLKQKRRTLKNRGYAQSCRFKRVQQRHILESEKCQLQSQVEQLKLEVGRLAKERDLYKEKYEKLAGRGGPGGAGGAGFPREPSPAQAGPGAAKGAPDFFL

Tests used:
GST-Kindlin-2 = GST-Kindlin-2 (UniProt Q96AC1); test: pull-down; mixture of purified GST-MafA and GST-Kindlin-2 immunoprecipitated with the indicated antibodies, Western blot; both purified
HA-MafA (mouse) = HA-MafA (mouse) (UniProt Q8CF90); test: co-IP; whole cell extracts from COS-7 cells overexpressing pCMV/Flag-Kindlin-2 and pCMV/HA-MafA; immunoprecipitated with anti-Kindlin-2 or anti-MafA antibody, Western blot
Flag-Kindlin-2 aa 1-239 = Flag-Kindlin-2 aa 1-239 (UniProt Q96AC1); test: co-IP; COS-7 cells transfected with MafA expression plasmids and Flag-Kindlin-2 deletion mutants, 48 h; whole cell extracts immunoprecipitated with M2 antibody, Western blot with M2 or MafA antibody
Flag-Kindlin-2 aa 1-569 = Flag-Kindlin-2 aa 1-569 (UniProt Q96AC1); test: as above
[1] = biological target: Flag-Kindlin-2 aa 570-680 (UniProt Q96AC1); test: as above
Flag-Kindlin-2 = Flag-Kindlin-2 (UniProt Q96AC1); test: co-IP; whole cell extracts from COS-7 cells overexpressing pCMV/Flag-Kindlin-2 and pCMV/HA-MafA; immunoprecipitated with anti-Kindlin-2 or anti-MafA antibody, Western blot

In the case of “glutathione S-transferase (GST)-MafA fusion protein (from UniProt Q8CF90 1-359)”, the binding (GST-Kindlin-2) is reported as “binds”.

In the case of “Flag-Kindlin-2 (from UniProt Q96AC1 1-680)”, the binding (HA-MafA (mouse)) is reported as “binds”.

In the case of “MafA (from MafA expression plasmids, COS-7) (from UniProt Q8CF90 1-359)”, the binding (Flag-Kindlin-2 aa 1-239) is reported as “no binding”, the binding (Flag-Kindlin-2 aa 1-569) is reported as “no binding” and the binding [1] is reported as “binds”.

For HA-MafA (from UniProt Q8CF90 1-359), the binding (Flag-Kindlin-2) was “binds”.
